# Measured values taken from the supplement of paper PMC8728848.
# The list shows a part of the results.
# B1: DBA (Dolichos biflorus) (protein)
# chain: ANIQSFSFKNFNSPSFILQGDATVSSGKLQLTKVKENGFPLRFPSGRAFYSSPIQIYDKFTGAVASWATSFTVKISAPSKASFADGIAFALVPVGSEPRRNGGYLGVFDSDVYNNSAQTVAVEFDTLSNSGWDPSMKHIGIDVNSIKSIATVSWDLANGENAEILITYNAATSLLVVSLVHPSRRTSYILSERVDITNELPEYVGVGFSATTGLSEGYIETHDVLSWSFASRLPDDSTAEPLDLARYLVRNVL
# Legend:
# Experiment in all cases: glycan array binding signal (z-score within array); higher = stronger binding
# Details in all cases: glycan notation: IUPAC condensed, linker removed
# [1] = biological target: Fuc(a1-2)Gal(b1-4)GlcNAc(b1-3)Gal(b1-4)GlcNAc(b1-2)Man(a1-3)[Fuc(a1-2)Gal(b1-4)GlcNAc(b1-3)Gal(b1-4)GlcNAc(b1-2)Man(a1-6)]Man(b1-4)GlcNAc(b1-4)GlcNAc
# In short: (§1)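 The binding signal is a Z-score computed within each array and averaged over linkers. Arrays of the same protein sequence at different concentrations or buffers were also averaged together. Data originate from 3228 arrays in the Consortium for Functional Glycomics database, kept only where the protein sequence was available.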
# [2] = biological target: Fuc(a1-2)Gal(b1-4)GlcNAc(b1-3)Gal(b1-4)GlcNAc(b1-3)Gal(b1-4)GlcNAc
# In short: as §1
# [3] = biological target: Fuc(a1-2)Gal(b1-4)GlcNAc(b1-3)GalNAc
# In short: as §1
# [4] = biological target: Fuc(a1-2)Gal(b1-4)GlcNAc(b1-3)[Fuc(a1-2)Gal(b1-4)GlcNAc(b1-6)]GalNAc
# In short: as §1
# [5] = biological target: Fuc(a1-2)Gal(b1-4)GlcNAc(b1-3)[Fuc(a1-3)[Gal(b1-4)]GlcNAc(b1-6)]Gal(b1-4)Glc
# In short: as §1
# [6] = biological target: Fuc(a1-2)Gal(b1-4)GlcNAc(b1-6)GalNAc
# In short: as §1
# [7] = biological target: Fuc(a1-2)Gal(b1-4)GlcNAc6S
# In short: as §1
# [8] = biological target: Fuc(a1-2)Gal(b1-4)[Fuc(a1-3)]GlcNAc
# In short: as §1
# [9] = biological target: Fuc(a1-2)Gal(b1-4)[Fuc(a1-3)]GlcNAc(b1-2)Man(a1-3)[Fuc(a1-2)Gal(b1-4)[Fuc(a1-3)]GlcNAc(b1-2)Man(a1-6)]Man(b1-4)GlcNAc(b1-4)[Fuc(a1-6)]GlcNAc
# In short: as §1
# [10] = biological target: Fuc(a1-2)Gal(b1-4)[Fuc(a1-3)]GlcNAc(b1-2)[Fuc(a1-2)Gal(b1-4)[Fuc(a1-3)]GlcNAc(b1-4)]Man(a1-3)[Fuc(a1-2)Gal(b1-4)[Fuc(a1-3)]GlcNAc(b1-2)Man(a1-6)]Man(b1-4)GlcNAc(b1-4)GlcNAc
# In short: as §1
# [11] = biological target: Fuc(a1-2)Gal(b1-4)[Fuc(a1-3)]GlcNAc(b1-3)Gal(b1-4)[Fuc(a1-3)]GlcNAc
# In short: as §1
# [12] = biological target: Fuc(a1-2)Gal(b1-4)[Fuc(a1-3)]GlcNAc(b1-3)Gal(b1-4)[Fuc(a1-3)]GlcNAc(b1-3)Gal(b1-4)[Fuc(a1-3)]GlcNAc
# In short: as §1
# [13] = biological target: Fuc(a1-2)Gal(b1-4)[Fuc(a1-3)]GlcNAc(b1-3)GalNAc
# In short: as §1
# [14] = biological target: Fuc(a1-2)Gal(b1-4)[Fuc(a1-3)]GlcNAc(b1-3)[Neu5Ac(a2-6)Gal(b1-4)GlcNAc(b1-6)]Gal(b1-4)Glc
# In short: as §1
# [15] = biological target: Fuc(a1-2)Gal3S(b1-4)GlcNAc
# In short: as §1
# [16] = biological target: Fuc(a1-2)Gal6S(b1-3)GlcNAc
# In short: as §1
# [17] = biological target: Fuc(a1-2)Gal6S(b1-3)GlcNAc6S
# In short: as §1
# Fuc(a1-2)Gal6S(b1-4)Glc = biological target: Fuc(a1-2)Gal6S(b1-4)Glc
# In short: as §1
# [18] = biological target: Fuc(a1-2)Gal6S(b1-4)Glc6S
# In short: as §1
# Fuc(a1-2)GlcNAc = biological target: Fuc(a1-2)GlcNAc
# In short: as §1
# Fuc(a1-2)[Gal(a1-3)]Gal = biological target: Fuc(a1-2)[Gal(a1-3)]Gal
# In short: as §1
# [19] = biological target: Fuc(a1-2)[Gal(a1-3)]Gal(b1-3)GalNAc
# In short: as §1
# [20] = biological target: Fuc(a1-2)[Gal(a1-3)]Gal(b1-3)GalNAc(b1-3)Gal(a1-4)Gal(b1-4)Glc
# In short: as §1
# [21] = biological target: Fuc(a1-2)[Gal(a1-3)]Gal(b1-3)GlcNAc
# In short: as §1
# [22] = biological target: Fuc(a1-2)[Gal(a1-3)]Gal(b1-3)GlcNAc(b1-2)Man(a1-3)[Fuc(a1-2)[Gal(a1-3)]Gal(b1-3)GlcNAc(b1-2)Man(a1-6)]Man(b1-4)GlcNAc(b1-4)GlcNAc
# In short: as §1
# [23] = biological target: Fuc(a1-2)[Gal(a1-3)]Gal(b1-3)GlcNAc(b1-2)Man(a1-3)[Fuc(a1-2)[Gal(a1-3)]Gal(b1-3)GlcNAc(b1-2)Man(a1-6)]Man(b1-4)GlcNAc(b1-4)[Fuc(a1-6)]GlcNAc
# In short: as §1
# [24] = biological target: Fuc(a1-2)[Gal(a1-3)]Gal(b1-3)GlcNAc(b1-3)GalNAc
# In short: as §1
# [25] = biological target: Fuc(a1-2)[Gal(a1-3)]Gal(b1-3)GlcNAc(b1-6)GalNAc
# In short: as §1
# [26] = biological target: Fuc(a1-2)[Gal(a1-3)]Gal(b1-4)Glc
# In short: as §1
# [27] = biological target: Fuc(a1-2)[Gal(a1-3)]Gal(b1-4)GlcNAc
# In short: as §1
binder,measurement,setting,value
B1,glycan array binding signal (z-score),[1],0.098
same,glycan array binding signal (z-score),[2],0.028
same,glycan array binding signal (z-score),[3],-0.104
same,glycan array binding signal (z-score),[4],-0.071
same,glycan array binding signal (z-score),[5],-0.102
same,glycan array binding signal (z-score),[6],-0.018
same,glycan array binding signal (z-score),[7],0.012
same,glycan array binding signal (z-score),[8],0.083
same,glycan array binding signal (z-score),[9],0.119
same,glycan array binding signal (z-score),[10],-0.044
same,glycan array binding signal (z-score),[11],-0.09
same,glycan array binding signal (z-score),[12],0.167
same,glycan array binding signal (z-score),[13],0.449
same,glycan array binding signal (z-score),[14],-0.066
same,glycan array binding signal (z-score),[15],-0.041
same,glycan array binding signal (z-score),[16],-0.086
same,glycan array binding signal (z-score),[17],-0.104
same,glycan array binding signal (z-score),Fuc(a1-2)Gal6S(b1-4)Glc,0.346
same,glycan array binding signal (z-score),[18],-0.057
same,glycan array binding signal (z-score),Fuc(a1-2)GlcNAc,-0.191
same,glycan array binding signal (z-score),Fuc(a1-2)[Gal(a1-3)]Gal,-0.014
same,glycan array binding signal (z-score),[19],-0.119
same,glycan array binding signal (z-score),[20],-0.084
same,glycan array binding signal (z-score),[21],-0.106
same,glycan array binding signal (z-score),[22],-0.079
same,glycan array binding signal (z-score),[23],-0.036
same,glycan array binding signal (z-score),[24],-0.076
same,glycan array binding signal (z-score),[25],-0.121
same,glycan array binding signal (z-score),[26],-0.095
same,glycan array binding signal (z-score),[27],-0.127
